From US20210324096A1 (Genmab, published 2021)

Target: T1, cynomolgus monkey DR5 protein with deletion of amino acids 185-213 and death domain loss-of-function mutation … (cynomolgus monkey (Macaca fascicularis))
T1 construct: Transiently expressed on CHO cells; also called Cyno DR5Mfdel-K420N; cynomolgus DR5-transfected CHO
T1 chain: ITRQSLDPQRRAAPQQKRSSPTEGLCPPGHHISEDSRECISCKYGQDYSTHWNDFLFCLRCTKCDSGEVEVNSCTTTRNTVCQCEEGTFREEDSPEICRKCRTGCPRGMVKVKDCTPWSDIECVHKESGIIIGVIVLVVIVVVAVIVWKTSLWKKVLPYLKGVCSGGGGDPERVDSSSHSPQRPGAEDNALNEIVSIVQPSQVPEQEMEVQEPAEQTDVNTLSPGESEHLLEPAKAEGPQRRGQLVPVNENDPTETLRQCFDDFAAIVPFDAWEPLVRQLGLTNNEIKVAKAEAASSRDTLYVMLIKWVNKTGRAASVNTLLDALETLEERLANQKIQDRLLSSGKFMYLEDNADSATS
Assay: flow cytometry on cynomolgus DR5-transfected CHO cells, four experiments (SD 0.175)

B1: IgG1-hDR5-01-G56T-E430G (antibody)
heavy: EVQLQQSGAEVVKPGASVKLSCKASGFNIKDTFIHWVKQAPGQGLEWIGRIDPANTNTKYDPKFQGKATITTDTSSNTAYMELSSLRSEDTAVYYCVRGLYTYYFDYWGQGTLVTVSSASTKGPSVFPLAPSSKSTSGGTAALGCLVKDYFPEPVTVSWNSGALTSGVHTFPAVLQSSGLYSLSSVVTVPSSSLGTQTYICNVNHKPSNTKVDKRV[human IgG1 Fc with E430G (EU numbers) left out]
light: EIVMTQSPATLSVSPGERATLSCRASQSISNNLHWYQQKPGQAPRLLIKFASQSITGIPARFSGSGSGTEFTLTISSLQSEDFAVYYCQQGNSWPYTFGQGTKLEIKRTVAAPSVFIFPPSDEQLKSGTASVVCLLNNFYPREAKVQWKVDNALQSGNSQESVTEQDSKDSTYSLSSTLTLSKADYEKHKVYACEVTHQGLSSPVTKSFNRGEC
notes: IgG1,kappa
**Q.** How did the EC50 turn out when B1 was run?
**A.** The EC50 was 0.27 µg/mL.
